Assay results taken from the supplement of paper PMC11369174, “Proteome-scale characterisation of motif-based interactome rewiring by disease mutations” (Molecular Systems Biology, 2024).
This is one part of the list. These are enrichments in a pooled selection; single values are uncertain.

T1: PEX14_Pex14__O75381_16_84
T1 chain: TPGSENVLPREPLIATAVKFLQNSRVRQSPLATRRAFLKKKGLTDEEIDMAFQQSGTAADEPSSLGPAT


Target: T1, PEX14_Pex14__O75381_16_84
Test: mean normalised NGS count of phage-displayed peptide after selection on bait (% of reads); baits are purified protein domains named by gene / domain / UniProt id / residues; peptides come from disordered regions of human proteins; higher = stronger enrichment / binding
Conditions: replicate selections in which the peptide was seen: 4

Row | Binder | mean normalised NGS count
1 | DSHDIPWVSQYRLAAH [COX15 211-226 mut Q7KZN9.R217W] | 0.0214
2 | ELANLYHHVWMANNET [BICD2 533-548 mut Q8TD16.C542W] | 0.0202
3 | VAANKSQGWLAELLRW [SATB2 508-523 wt] | 2.05

These binders were tested against PPIA_full-length__P62937_1_165, P62937 in the same assay as above. Conditions: replicate selections in which the peptide was seen: 3.
Sequence of PPIA_full-length__P62937_1_165, P62937 (P62937 whole entry, looked up): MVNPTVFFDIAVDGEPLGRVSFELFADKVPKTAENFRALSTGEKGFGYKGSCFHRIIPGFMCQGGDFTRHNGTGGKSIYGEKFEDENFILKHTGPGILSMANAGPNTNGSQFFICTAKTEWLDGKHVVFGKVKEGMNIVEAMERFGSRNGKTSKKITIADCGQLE

Row | Binder | mean normalised NGS count
4 | DSHDIPWVSQYRLAAH [COX15 211-226 mut Q7KZN9.R217W] | 0.0322

Target: T1, PEX14_Pex14__O75381_16_84
Test: as above
Conditions: replicate selections in which the peptide was seen: 5

Row | Binder | mean normalised NGS count
5 | TTDFPGIYSGYDDAWD [POLR1C 26-41 mut O15160.N32I] | 0.163
6 | TDSTLATWKQEYVDYS [DKC1 405-420 mut O60832.P409L] | 0.344
7 | TDSTPATWKQEYVDYS [DKC1 405-420 wt] | 0.257
8 | YDEVTAFLGEWGLFQR [SLC22A5 4-19 mut O76082.P16L] | 0.545
9 | DEVTAFLGEWGLFQRL [SLC22A5 5-20 mut O76082.P16L] | 0.142
10 | QQRAAPGEPDWMGRLW [CACNA1H 764-779 mut O95180.G773D] | 7.47
11 | LDLLQEHSDEAIWAAL [ABCC6 1360-1375 wt] | 1.54
12 | DRYGEVWRGLWHGESV [ACVRL1 211-226 mut P37023.G211D] | 0.0841
13 | ELSNALMAAEWFKEHR [TSC2 1230-1245 mut P49815.R1240W] | 0.0695
14 | TEHSTVGLAQQWDQLD [SPTAN1 2283-2298 wt] | 0.0432

Same assay, conditions: replicate selections in which the peptide was seen: 6

Row | Binder | mean normalised NGS count
15 | ITDFPGNYSGYDDAWD [POLR1C 26-41 mut O15160.T26I] | 1.13
16 | TADFPGNYSGYDDAWD [POLR1C 26-41 mut O15160.T27A] | 0.842
17 | TTDFPGNYSGYDDAWD [POLR1C 26-41 wt] | 1.31
18 | TTDFSGNYSGYDDAWD [POLR1C 26-41 mut O15160.P30S] | 4.92
19 | MRDYDEVTAFLGEWWP [SLC22A5 1-16 mut O76082.G15W] | 0.34
20 | YDEVTAFLGEWWPFQR [SLC22A5 4-19 mut O76082.G15W] | 0.41
21 | EQLALRTDLTEAWVQV [ALX3 184-199 mut O95076.R196W] | 3.08
22 | APGEPDWMGRLWVTFS [CACNA1H 768-783 mut O95180.G773D] | 0.19
23 | ALQELWAQHEDQVEQY [LMNA 244-259 mut P02545.R249W] | 0.141
24 | KLENPLDYGSAWAAAA [AR 388-403 wt] | 1.42
25 | ELHSEFSEVMNEIWAS [HADHA 67-82 wt] | 0.367
26 | GDSDLQLEWISVYYNE [TUBB3 38-53 mut Q13509.R46W] | 1.72
27 | RITDDQLRVLWQYFDI [ZFHX3 2151-2166 mut Q15911.R2161W] | 27.5
28 | DDADALGGMLISWYMS [SMN1 255-270 mut Q16637.S262G] | 0.311
29 | WNINEYLAVVDAPPLD [FOXRED1 136-151 mut Q96CU9.R136W] | 2.8
30 | LPLLLMPEEAWLLAEI [TSEN34 48-63 mut Q9BSV6.R58W] | 2.98
